# Measurements from PubChem BioAssay AID463173 (ICCB-Longwood Screening Facility, Harvard Medical School, 2010).
# About 4,300 (8.3%) of roughly 52,000 compounds were called active. Rule as the data show it: active = survival mostly below about 52% (no sharp cut-off); inactive = mostly above about 56%. Some of the results follow.
# Test system: DeltatarO mutant
# Experiment: growth inhibition of S. aureus wild type versus tarO mutant, primary screen, teichoic acid synthesis inhibitors, RN4220, OD600 (AID 463173)
# Details: OD600, 18 h, active compounds read low, screened at 18.75 µg/mL (by protocol)
row,SMILES,survival
1,N#C/C(=C\c1cc(Br)c(O)c(Br)c1)c1nc2ccccc2c(=O)[nH]1,inactive: 90%
2,CN(C)c1ccc(-c2nc3ccccn3c2NC2CCCC2)cc1,inactive: 83%
3,CCCC1=Nc2cc(C(=O)NCCOC)ccc2Sc2ccccc21,inactive: 113%
4,CCCOc1ccccc1C1C(C(=O)Nc2ccccc2)=C(C)Nc2nnnn21 (stereo not drawn),inactive: 140%
5,CCc1ccc(N(CC)C(=O)Cn2cnc3sc(C)c(S(=O)(=O)N4CCN(c5ncccn5)CC4)c3c2=O)cc1,inactive: 71%
6,Cc1cccc(S(=O)(=O)c2cn(C)c3cc(N4CCC(C)CC4)c(F)cc3c2=O)c1,inactive: 91%
7,Cc1[nH]c(=O)[nH]c(=O)c1CSCC(=O)O,inactive: 89%
8,CCC(=O)N1c2ccc(S(=O)(=O)CCC(=O)NCc3cccc(OC)c3)cc2CC1C (stereo not drawn),inactive: 102%
9,Cc1cccc2sc(N(Cc3cccnc3)C(=O)C3COc4ccccc4O3)nc12 (stereo not drawn),inactive: 67%
10,COc1ccc(-c2nc(Cn3c(SCc4ccccc4F)nc4cccnc43)c(C)o2)cc1,inactive: 69%
11,Cc1ccc(CNC(=O)CN2C(=O)C3(SCC(=O)N3c3ccc(F)c(F)c3)c3ccccc32)cc1 (stereo not drawn),inactive: 75%
12,CCOC(=O)C(Cc1ccccc1)NC(=O)CCc1c(C)nc2c(c(C)nn2-c2ccc(C)c(C)c2)c1C (stereo not drawn),inactive: 66%
13,COC(=O)c1ccccc1NC(=O)C1CCCN(c2nnc(C)c3c(C)n(-c4ccccc4)nc23)C1 (stereo not drawn),inactive: 79%
14,COC(=O)c1c(NC(=O)c2ccc(S(=O)(=O)N(C)C3CCCCC3)cc2)sc2c1CCN(C)C2,inactive: 99%
15,COc1ccc(OC)c(NC(=O)C2C3C=CC(C3)C2C(=O)NCc2cccnc2)c1 (stereo not drawn),inactive: 106%
16,CC1=C(C#N)c2nc(N)c(C#N)c(C)c2/C1=C\c1cccnc1,inactive: 92%
17,O=C(CN1C(=O)CCc2cc(S(=O)(=O)N3CCCCC3)ccc21)NCc1ccc(Cl)cc1,inactive: 78%
18,CCc1ccc(NC(=O)CSc2ncc(S(=O)(=O)c3cc(C)ccc3C)c(=O)[nH]2)cc1,inactive: 59%
19,COc1ccc(CC(=O)NC2CC(=O)N(c3ccc(C)c(C)c3)C2)cc1OC (stereo not drawn),inactive: 63%
20,O=C(Cn1c(=O)oc2cc(S(=O)(=O)N3CCCCC3)ccc21)NCc1ccc(F)cc1,inactive: 109%
21,CC1CCN(c2nc3ccc(C(=O)NCCc4ccc(S(N)(=O)=O)cc4)cc3s2)CC1,inactive: 98%
22,CC1Cc2ccccc2N1C(=O)c1cc2sccc2n1Cc1ccc(F)cc1 (stereo not drawn),inactive: 98%

row,SMILES,survival
1,CCn1c(SCC(=O)c2ccccc2)nnc1-c1cccc(Cl)c1,active: 39%
2,CCc1c(CN2CCN(c3ccccc3F)CC2)csc1C,active: 32%
3,CN(C)c1ccc2c(c1)S(=O)(=O)c1cc(N(C)C)ccc1C2=O,inactive: 75%
4,O=C(Cn1c(-c2cccs2)cc2cc(F)ccc21)NCCCN1CCN(c2ccc(F)cc2)CC1,inactive: 89%
5,Cc1ccc(/C=C/c2onc(C)c2S(=O)(=O)N2CCC(C(=O)NCc3ccc(OC(C)C)cc3)CC2)cc1,inactive: 69%
6,COc1ccc(-c2c(C)c3ccc(O)c(CN4CCCC4)c3oc2=O)cc1,inactive: 91%
7,COc1cccc(CNCCSc2nnnn2-c2ccccc2)c1OC,inactive: 51%
8,Cc1ccc(S(=O)(=O)NCCSc2nnc3nc(C)cc(C)n23)cc1,inactive: 67%
9,Cc1ccc(C)c(N2CCN(C(=O)CS(=O)(=O)c3cccc4nsnc34)CC2)c1,inactive: 98%
10,COc1ccc(OCC(=O)NCC(c2ccc(OC)cc2)N2CCOCC2)cc1 (stereo not drawn),inactive: 98%
11,Cc1cc(NC(=O)c2cnc3c(-c4ccccc4)c(C)nn3c2C)ccc1Br,inactive: 100%
12,Cc1cc(NC(=O)C(C)(C)C)cc(-c2nc3ncccc3o2)c1O,inactive: 78%
13,Cc1cccc(N2CCN(C(=O)CN3C(=O)COc4ccc(S(=O)(=O)N5CCCC5)cc43)CC2C)c1 (stereo not drawn),inactive: 77%
14,CCOc1ccc(-n2nc(CO)c(C(=O)NCC(C)O)n2)cc1 (stereo not drawn),active: 39%
15,COc1ccc(OCCn2nnc3sc4c(c3c2=O)CCCC4)cc1,inactive: 83%
16,COc1ccc(N2CCN(c3ncnc4c3nnn4C)CC2)cc1,active: 0%
17,COCCn1c(N)cc(=O)[nH]c1=S,inactive: 95%
18,Cc1ccc(-c2nc(CS(=O)CC(=O)NCCc3ccc(Cl)cc3)c(C)o2)cc1 (stereo not drawn),inactive: 77%
19,CC(CNC(=O)CCCn1c(=O)c2cccn2c2ccc(F)cc21)c1ccccc1 (stereo not drawn),active: 35%
20,Cc1cccc(C(=O)NNc2ncnc3c2cnn3-c2ccc(C)c(Cl)c2)c1,inactive: 57%
21,COc1cc(NC(=O)C2Cc3ccccc3N2C(=O)c2ccccc2)cc(OC)c1 (stereo not drawn),inactive: 67%
22,O=C(CSc1ncc2c(n1)-c1ccccc1N(Cc1ccc(Cl)cc1)S2(=O)=O)c1ccccc1,inactive: 144%

row,SMILES,survival
1,Cc1nnnn1CCC(=O)NC(C)c1ccccc1 (stereo not drawn),inactive: 84%
2,CCOc1ccccc1Nc1sc(C(=O)c2ccc(Cl)cc2)c(N)c1S(=O)(=O)c1ccccc1,active: 25%
3,Cc1cccc(N2CCN(C(=O)c3ccc4c(c3)N(Cc3cccc(Cl)c3)C(=O)c3ccccc3S4(=O)=O)CC2)c1C,inactive: 106%
4,CCN(Cc1ccccc1)C(=O)Cn1ncc2c(=O)oc3ccc(C)cc3c21,inactive: 89%
5,CCOc1ccc(NC(=O)CCc2nnc3n(C)c(=O)c4sccc4n23)cc1,inactive: 194%
6,CCOC(=O)c1c(C)[nH]c(C)c1S(=O)(=O)NCC(=O)NCc1ccccc1C,inactive: 126%
7,CCOc1ccccc1CNS(=O)(=O)c1cc(-c2onc(C)c2C)ccc1OC,inactive: 81%
8,CCOC(=O)C1CCN(c2ncnc3c2c(-c2ccccc2)cn3-c2ccc(Cl)cc2)CC1,inactive: 71%
9,Cc1ccc(NC(=O)Cn2c(=O)n(CCCCC(=O)NCc3ccc4c(c3)OCO4)c(=O)c3ccccc32)cc1,inactive: 72%
10,CCC(=O)N1c2ccccc2CC1C(=O)N1CCN(c2ccccc2F)CC1 (stereo not drawn),inactive: 80%
11,N#Cc1c(C(F)(F)F)cc(-c2cccs2)nc1SCc1ccccc1F,inactive: 48%
12,CCOc1ccccc1Oc1nc(C)nc2c1oc1ccccc12,inactive: 124%
13,Clc1ccccc1CSc1nc(NCCc2ccccc2)c2ccccc2n1,inactive: 66%
14,Cc1ccc(Cl)cc1Nc1nn2c(=O)c3ccc(C(=O)NC(C)c4ccccc4)cc3nc2s1 (stereo not drawn),inactive: 105%
15,Cc1ccc(Cl)cc1N1CCN(C(=O)CCS(=O)(=O)c2ccc3c(c2)oc(=O)n3C)CC1,inactive: 83%
16,COc1ccccc1CNC(=O)CCc1c(C)nn(-c2ccc(N3CCCCC3)nn2)c1C,inactive: 90%
17,Cc1ccc(S(=O)(=O)C(CNS(=O)(=O)c2ccc(F)c(C(F)(F)F)c2)c2ccco2)cc1 (stereo not drawn),inactive: 102%
18,CCC(C(=O)NC1CCCCC1)n1c(SCc2cccc(F)c2)nc2ccncc21 (stereo not drawn),inactive: 81%
19,CC1(C)CC(CC#N)(Cc2ccccc2)CCO1 (stereo not drawn),inactive: 93%
20,COc1ccccc1NC(=O)Cn1ccn(-c2cc(C)cc(C)c2)c(=O)c1=O,inactive: 55%
21,CC(CNC(=O)C1CCN(C(=O)c2cc3sccc3n2C)CC1)c1ccccc1 (stereo not drawn),inactive: 66%
22,O=C(NCc1ccc2c(c1)OCO2)C1CCN(c2ncccn2)CC1,inactive: 88%

row,SMILES,survival
1,CCOc1ccc(CNCc2c(C(=O)O)n(Cc3ccccc3C)c3cc(OC)ccc23)cc1OC,inactive: 106%
2,Cc1ccc2oc(-c3ccc(C)c(NC(=O)c4ccc(-c5ccccc5[N+](=O)[O-])o4)c3)nc2c1,inactive: 68%
3,CCOc1ccc(S(=O)(=O)N(CC(=O)Nc2ccc3c(c2)OCO3)c2ccc(C)cc2)cc1,inactive: 50%
4,COC(=O)c1ccc2nc(C)cc(Nc3cccc(Cl)c3C)c2c1,inactive: 153%
5,COCC(=O)Nc1c(C(=O)Nc2ccc(C)cc2)oc2ccccc12,inactive: 86%
6,Cc1ccc(NC(c2nnc(-c3ccccc3)o2)c2ccccc2F)c(Cl)c1 (stereo not drawn),inactive: 85%
7,Cc1ccc(Nc2nc(C(=O)N3CCC(C(=O)NCCN4CCOCC4)CC3)cs2)cc1,inactive: 89%
8,Cc1ccc2onc(CNC(=O)N3CCN(c4cccc(C(F)(F)F)c4)CC3)c2c1,inactive: 65%
9,CCN(CC)S(=O)(=O)c1ccc(N2CCCCS2(=O)=O)cc1,inactive: 75%
10,Cc1ccc(CNC(=O)CN2C(=O)CCc3cc(S(=O)(=O)N4CCCCC4)ccc32)cc1,inactive: 84%
11,CCn1cc(S(=O)(=O)c2ccc(Cl)cc2)c(=O)c2cc(F)c(N3CCOCC3)cc21,inactive: 83%
12,COc1cc(CN(C(=O)c2ccc(Cl)cc2)C2CCS(=O)(=O)C2)cc(OC)c1OC (stereo not drawn),inactive: 69%
13,COC(=O)/C(C#N)=C\c1c[nH]c2ccccc12,inactive: 94%
14,CCOc1ccc(-n2c(=O)c3c(C)c(C(=O)N(C)C)sc3n(Cc3cc(C)ccc3C)c2=O)cc1,active: 0%
15,Cc1ccc(S(=O)(=O)C(CNC(=O)C(=O)NCc2ccc(Cl)cc2)c2ccco2)cc1 (stereo not drawn),inactive: 109%
16,CCOc1ccc(-c2nc3cc(NC(=O)COc4cccc(C)c4)ccc3o2)cc1,inactive: 116%
17,CN(C(=O)CSc1nc2ccccc2n1Cc1ccccc1C#N)c1ccccc1,inactive: 72%
18,CCCC(OC(=O)CN1C(=O)COc2ccccc21)C(=O)NC1CCCC1 (stereo not drawn),inactive: 85%
19,CCOc1ccccc1CNC(=O)c1oc2ccc3c(c2c1C)C(=O)CC(C)(C)O3,inactive: 66%
20,O=c1c2sc3ccccc3c2n(Cc2ccc(F)cc2Cl)c(=O)n1Cc1ccccc1,inactive: 91%
21,FC(F)(F)C(F)(F)C(F)(F)c1nnc2ccc(N3CCOCC3)nn12,inactive: 97%
22,Cc1cc(C)c(NS(=O)(=O)c2ccc(-c3coc(C)n3)cc2)c(C)c1,inactive: 94%
